Source: article PMC5018964, “Visualization and ligand-induced modulation of dopamine receptor dimerization at the single molecule level” (Scientific Reports, 2016)

Target: the molecule itself
Experiment: single-molecule TIRF microscopy (intensity distribution of fluorescent spots); living stably transfected CHO cells, SNAP-tag labelled with 1 uM Alexa546-BG, ligand-free; spots of the first 10 frames fitted with a mixed Gaussian model; room temperature (24.0 ± 0.3 °C), imaging buffer pH 7.4; SNAP-D2L at 0.67 ± 0.03 spots um^-2

B1: SNAP-CD28 (human CD28 truncated at R185, SNAP-tag at the extracellular N-terminus) (domain or fragment)
chain: not shown
modifications: Alexa546 covalently on the SNAP-tag through benzylguanine (Alexa546-BG)
notes: human CD28 truncated at R185, PCR amplified from a CD28-YFP plasmid and ligated into pSNAPf in place of D2L; Called a disulfide-bridged protein dimer; also called SNAP-28; dimeric control protein; source: CHO-K1, stably transfected, in the membrane of living cells; not shown: SNAP-tag, N-terminal, kept
stoichiometry N: 2
